# The supplement of paper PMC10126150
# Values marked as one replicate rest on one cluster of the flow cell; about a third of the high ones do not repeat.
# Tested on: ATP
# Experiment: switch fluorescence ratio, 500 uM ATP over buffer (Cy3 cluster intensity, sum of 5 cycles each) (fold (ratio)); higher = stronger signal-on switching upon ATP binding; sequences stand for … in TCGTCGGCAGCGTCAGATGTGTATAAGAGACAGTTTTTTTTTTTTTTTTTTTTTTTTT…TC
# Settings: aptamer strand: ATP DNA aptamer (quencher-CACCTGGGGGAGTATTGCGGAGGAAGG + anchor), 100 nM annealed; ATP concentration: 500 uM; one replicate
# In short: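 Five buffer/ATP imaging cycles were run on Cy3-labelled switching-strand clusters on a modified Illumina MiSeq flow-cell, with NaOH stripping and re-annealing between cycles. In each cycle, clusters annealed to 100 nM quencher-labelled ATP aptamer were imaged in selection buffer, then after 15 min with 500 uM ATP at 22 °C. Per cluster, the fluorescence ratio is summed target-cycle over summed buffer-cycle Cy3 intensity, averaged per switch-domain sequence. Only clusters within 100-1000 RFU were kept.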
# 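Note: ATP exposure 15 min at 22 °C before imaging.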
row,Sequence,switch fluorescence ratio
1,GGTCGCACGT,1.09
2,GGTCGCCCTA,0.974
3,GGTCGCCCTC,1.01
4,GGTCGGGCAA,1.2
5,GGTCGGTCTT,0.971
6,GGTCGTCCGG,1.01
7,GGTCGTCTAG,0.975
8,GGTCGTGGTC,1.01
9,GGTCTAAGAA,0.973
10,GGTCTAGTTT,1.01
11,GGTCTATGCG,0.981
12,GGTCTCTCCT,0.979
13,GGTCTTATAC,1.11
14,GGTGAAAGTT,0.968
15,GGTGACACGA,1.02
16,GGTGACGCGT,0.978
17,GGTGACGGAT,0.977
18,GGTGACTCCA,0.988
19,GGTGACTGGT,1.03
20,GGTGAGAC,1.02
21,GGTGAGGAGG,0.992
22,GGTGAGGTTT,0.983
23,GGTGATAAAC,1.01
24,GGTGATCCAT,0.971
25,GGTGCCAGGT,1.05

row,Sequence,switch fluorescence ratio
1,GGTGCCCCGA,1.03
2,GGTGCCGTGG,0.99
3,GGTGCGCCC,0.986
4,GGTGCGTTAT,2.23
5,GGTGCTACAG,1.03
6,GGTGCTCCA,1
7,GGTGCTGCTG,0.964
8,GGTGCTTACG,0.985
9,GGTGGATCGA,1.13
10,GGTGGATCGC,1.04
11,GGTGGCCGCT,1.04
12,GGTGGGCCGA,0.997
13,GGTGGGCCTA,1.02
14,GGTGGGTAAC,0.959
15,GGTGGGTCAA,1.05
16,GGTGGGTCCC,0.981
17,GGTGGGTGCC,1.04
18,GGTGGGTTTA,1.09
19,GGTGGTATAG,0.996
20,GGTGGTTAGT,1.03
21,GGTGGTTTTA,1.02
22,GGTGTAAAGT,0.998
23,GGTGTAAGGC,1.02
24,GGTGTCGACG,1.03
25,GGTGTCTGAG,0.983

row,Sequence,switch fluorescence ratio
1,GGTGTGATCG,0.96
2,GGTGTTCGAC,1.01
3,GGTGTTTTGT,1.03
4,GGTTAACCGC,0.998
5,GGTTAAGCTG,1.03
6,GGTTACTATA,1.01
7,GGTTAGGAGC,0.949
8,GGTTAGTCGG,1.01
9,GGTTATGACT,1.07
10,GGTTATTGAA,1.03
11,GGTTCAACCG,1.05
12,GGTTCAGATC,1
13,GGTTCATTGA,1.05
14,GGTTCGCGAC,1.04
15,GGTTCGGCTT,0.992
16,GGTTCGTGCA,1.02
17,GGTTCGTTCT,0.977
18,GGTTCTACGC,1.04
19,GGTTCTCGGG,0.977
20,GGTTCTGAAG,1.04
21,GGTTCTGCGC,0.969
22,GGTTGAACGA,1.02
23,GGTTGAGGAT,0.958
24,GGTTGCACAT,0.978
25,GGTTGCAGTT,0.995

row,Sequence,switch fluorescence ratio
1,GGTTGCGACC,0.957
2,GGTTGCGGAG,0.947
3,GGTTGGGACG,1.02
4,GGTTGGTAGA,1.01
5,GGTTGTCCCT,1.01
6,GGTTGTTTCC,1.05
7,GGTTTAAGGA,0.978
8,GGTTTATCGC,1.01
9,GGTTTCAG,1.01
10,GGTTTCTCTG,1.01
11,GGTTTGGTGT,1.04
12,GGTTTGTTCT,0.957
13,GTAAAAAATA,1.03
14,GTAAAAATAG,1.42
15,GTAAAACGCC,1.07
16,GTAAAAGTAG,0.944
17,GTAAAATAGT,0.998
18,GTAAATGTAA,0.972
19,GTAAATTGCT,1.03
20,GTAACAGATG,0.943
21,GTAACCGGGG,1.02
22,GTAACCGTCG,1.2
23,GTAACGTCAT,1.06
24,GTAAGAGCTT,0.963
25,GTAAGAGGAT,1.03

row,Sequence,switch fluorescence ratio
1,GTAAGCTCTG,0.952
2,GTAAGCTGGT,1.73
3,GTAATACAGT,1.02
4,GTAATAGTCC,2.07
5,GTAATATGCT,1.01
6,GTAATCTTTT,0.977
7,GTAATGCTGT,1.17
8,GTAATGGGCG,1.05
9,GTAATTTGAG,0.985
10,GTACACGCCC,1.19
11,GTACACGCCG,1.03
12,GTACATATTG,0.962
13,GTACATGGTA,1.02
14,GTACCCCGC,1.22
15,GTACCCCGGC,1.05
16,GTACCCTTGG,1.04
17,GTACCTGTGC,1.06
18,GTACGAAGGA,0.989
19,GTACGCACCC,1.71
20,GTACGCATAA,2.52
21,GTACGCTTTG,1.03
22,GTACGTCTCC,1.06
23,GTAGAAATCG,1.04
24,GTAGAAATTA,1
25,GTAGAATGCA,0.957

row,Sequence,switch fluorescence ratio
1,GTAGAGG,1.03
2,GTAGAGGGAC,1.02
3,GTAGATCGCG,1.03
4,GTAGATGCCT,0.99
5,GTAGGAATGA,1.1
6,GTAGGAGATT,1.01
7,GTAGGAGGGT,0.988
8,GTAGGCCGAA,0.961
9,GTAGGGAATG,1
10,GTAGGTGTAG,1.01
11,GTAGTAATGG,2.58
12,GTAGTAGTAC,3.04
13,GTAGTCAGGT,0.987
14,GTAGTCTAAT,0.935
15,GTAGTCTCAT,0.964
16,GTAGTGATAG,1.78
17,GTAGTGGTTA,0.995
18,GTATAAATCC,1.01
19,GTATAAGCAC,1.21
20,GTATACCGT,0.998
21,GTATAGAAGG,1.02
22,GTATAGTTGT,0.973
23,GTATCCGGGT,0.933
24,GTATCGTGGA,0.99
25,GTATCTACCT,1.14

row,Sequence,switch fluorescence ratio
1,GTATGAACAG,0.959
2,GTATGACAAA,1.02
3,GTATGCAAGT,0.962
4,GTATGCTACG,0.931
5,GTATGTAGCC,1.03
6,GTATGTCGAA,1
7,GTATTATATC,0.962
8,GTATTCGGTC,0.987
9,GTATTCGTAC,0.958
10,GTATTCTAAG,0.982
11,GTATTTCACC,1.06
12,GTATTTGTGG,0.991
13,GTATTTTGC,1.05
14,GTCAAAGAGG,1
15,GTCAACTACG,1.08
16,GTCAACTGCA,1.02
17,GTCAAGAGGC,1.11
18,GTCAATCTGT,1.04
19,GTCAATGAAA,0.988
20,GTCACAACTG,1.08
21,GTCACAGTC,0.956
22,GTCACAGTGG,0.988
23,GTCACTATAG,0.983
24,GTCACTCCGG,1.14
25,GTCACTCTG,1

row,Sequence,switch fluorescence ratio
1,GTCAGAGGAC,0.929
2,GTCAGATAAT,0.96
3,GTCAGCGATG,1.01
4,GTCAGGACA,1.02
5,GTCAGGGCCG,1.1
6,GTCAGGTATA,0.981
7,GTCAGTTACG,1.08
8,GTCAGTTTGG,0.995
9,GTCATATTAG,0.993
10,GTCATCATGC,0.967
11,GTCATTCTAC,0.994
12,GTCATTGGGG,0.983
13,GTCCAAGTCG,1.04
14,GTCCAGATTA,1
15,GTCCCCGTGT,1.02
16,GTCCCGGGTA,1.02
17,GTCCCTACCT,1.23
18,GTCCGTATGA,1.03
19,GTCCTTAGTA,1.02
20,GTCCTTGAGT,0.985
21,GTCGAAATGA,0.983
22,GTCGACAGCC,0.965
23,GTCGACCTCG,1
24,GTCGAGGCGG,1.02
25,GTCGATAGTT,1.01
